# The full ranking holds about 33,000 sequences; the median of “E-score (-0.5 to 0.5)” is about -0.056, and the highest 2% start at about 0.38. This is one part of the list.
# Molecular target: Stb4 (UniProt P50104)
# Test: PBM E-score (8-mer binding enrichment) (E-score (-0.5 to 0.5)); higher = stronger / more preferred TF binding; most listed sequences are background and not binding sites
# Settings: protein concentration: 200 nM; construct: GST-DNA-binding domain
# How it was run: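 Yeast transcription factors, full-length or as DNA-binding domains, were expressed with a GST tag using PURExpress in vitro transcription/translation. At about 100-200 nM they were applied to universal all-10-mer Agilent arrays, double-stranded by primer extension on fresh or once-stripped slides. Fluorescent anti-GST detected bound protein, and masliner normalised the scans. E-scores for ungapped eight-base words, pooled with reverse complements, came from the Universal PBM Analysis Suite.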
row,Sequence,PBM E-score
1,AGGCACAT,-0.0897
2,CACACACA,-0.176
3,CAGCAGAA,-0.00769
4,GCGTCGAA,-0.0895
5,CCTGCGAA,-0.17
6,CCCATCCC,0.0483
7,CTAACTAG,-0.0131
8,TGTGGTAA,-0.0792
9,AGTCACAT,-0.106
10,CGTTAAGA,-0.196
11,CTCACAAC,0.0516
12,TAATCGGA,0.324
13,ATCCTCGA,-0.25
14,AACCGGAC,0.192
15,ACGGAAAA,0.325
16,CGCGAGAG,-0.0296
17,ATGGTCAC,0.0213
18,ATGTAGCG,-0.189
19,AGGCAGTG,-0.193
20,ACCTCTCG,0.027
21,ATAGAGGA,-0.128
22,GAGATCCC,0.0839
23,ACCGGCCA,0.119
24,AGGCCGCC,-0.142
25,GAGATAAA,0.0723

row,Sequence,PBM E-score
1,ACCTCAGA,-0.0978
2,AATGGATC,0.08
3,TGCTTCAA,-0.0517
4,ACATTCCA,-0.218
5,ATCCCAGA,-0.098
6,CCACAGAG,-0.197
7,CCAAAACA,-0.236
8,TCTATGAA,-0.218
9,GGCTGCAA,0.0959
10,ACCTGCCA,-0.00358
11,AATGGAAG,-0.0876
12,CTGCCGAA,0.411
13,ACTGGCGA,-0.254
14,CACTACCC,0.0794
15,ACGACATC,-0.0399
16,ACACCGAG,0.298
17,CCTGGAAG,-0.298
18,CAGGATCG,0.0947
19,CCCGGAAA,0.39
20,ACTAGCGC,-0.189
21,AAAGAGAG,-0.188
22,CAATTTCG,0.0914
23,ACTAATCA,0.0094
24,TCATATCA,-0.0336
25,CCATCCAC,-0.0741

row,Sequence,PBM E-score
1,CCGCAACG,0.114
2,ATTATCAA,-0.175
3,AACTGATC,-0.0701
4,ATAGGGTG,-0.151
5,GTTGGATA,-0.0408
6,CATAAGGA,-0.227
7,AGTCATCC,0.192
8,GCGCGTAC,0.139
9,CAGCCCGG,0.333
10,ACTCTTGG,-0.203
11,CTCCGACA,0.227
12,CCCATCGG,0.311
13,AGGCTCTA,-0.08
14,ATCGCTCC,0.0495
15,TCAAGAGA,-0.0622
16,ACGTAAGT,-0.0814
17,AAGCCTTG,-0.0832
18,CCGGAGCC,0.303
19,GCCTGGCC,-0.00689
20,ATACGATA,-0.0826
21,ACCTTGAA,-0.318
22,CCTATCCA,-0.196
23,GACTATGC,-0.161
24,ACTATGAC,-0.104
25,ATTTGTCG,0.0564

row,Sequence,PBM E-score
1,ACGAACTG,-0.0996
2,AAATTACG,-0.0914
3,AGGGATGC,-0.326
4,CAAGAGGG,-0.282
5,AGGAGTTA,-0.0113
6,TACGGGAA,0.288
7,CGGGAGAA,0.265
8,ACCACCCG,0.242
9,AACGTATG,-0.369
10,CCTCATGA,-0.109
11,TCACATCA,-0.0958
12,ACCTAGTC,-0.171
13,AGGGCTAT,-0.285
14,ATCCGTTG,0.317
15,TACACGAA,0.0942
16,GACCACCC,-0.0404
17,ATGGATGA,-0.161
18,ACACGCTG,-0.0897
19,CGAAACCC,0.238
20,ATAAGCTC,0.0278
21,ACTTCGCT,-0.125
22,CATAGTTA,-0.0819
23,CTGTCGGC,0.275
24,AGCGTGGC,-0.147
25,AATCTATG,0.00551

row,Sequence,PBM E-score
1,GATTTGAC,-0.0984
2,CCAGCTGC,0.00982
3,GAGGACAA,-0.18
4,CCCTGACA,-0.217
5,CCCCGCGA,0.16
6,ATAGCCCA,-0.00408
7,TACAACGA,-0.0749
8,CAATTTGA,-0.046
9,CGGAGGTC,0.172
10,AATATACT,-0.0789
11,CCTTACAA,-0.0622
12,AGTAGTAG,-0.107
13,ACTTGCCC,0.0813
14,GGGACCAA,-0.0727
15,GCTCAGCC,-0.0564
16,CAAACTAA,0.108
17,AAGGATTC,-0.138
18,TATGGTGA,-0.138
19,CGATCCCG,0.342
20,GAGGGGCC,0.0391
21,CTCCGCCA,0.0378
22,GACCATAC,0.15
23,GGCGACCC,0.114
24,ACGTTGGC,-0.226
25,CGTATTGC,0.115

row,Sequence,PBM E-score
1,AGCAGAAC,-0.166
2,CGGGAATA,0.417
3,GGGGTTAC,-0.0116
4,CTTGGACC,-0.163
5,ACCTTCCC,0.0875
6,CTAGCACC,0.0619
7,AAGTTCAG,-0.127
8,AGCACTTG,-0.205
9,GACTGGTA,0.0628
10,AAACGCAG,-0.15
11,AGTTAAGA,-0.0913
12,CGCTGACC,-0.0105
13,ACAAGGAA,0.0488
14,CTACTATA,0.0219
15,GCGCGCAA,0.0215
16,ACAATCCC,0.266
17,AAGTTGGT,0.0189
18,CAAGTGTA,-0.205
19,CGGGCGAC,0.141
20,AGTCGTGA,-0.255
21,CTATGTGC,-0.233
22,ACTAGAGA,-0.131
23,CCGGTCTC,0.209
24,AGCATGCG,-0.111
25,AGTACTCA,-0.345

row,Sequence,PBM E-score
1,GGGGGTTA,-0.214
2,CCGGGATA,0.292
3,CGCCGTCC,0.0221
4,GTACCGGA,0.283
5,AGTCCATG,-0.228
6,ACCTGAAC,-0.00703
7,GCTGATCC,0.144
8,AGAATAAC,-0.166
9,AAAATATC,0.0374
10,CGGTACAA,0.323
11,AAGATGGG,-0.125
12,CGTTCTAA,0.03
13,TCACCCAA,-0.112
14,GCCGTCGA,0.00974
15,ATGGAGGG,-0.299
16,ATTGCCGC,0.121
17,GGCTCCCA,-0.0654
18,CAACCACC,0.0572
19,AGGCCTTG,-0.263
20,AAACAACG,-0.0166
21,GAGGTCGA,-0.206
22,GTGGATAA,-0.091
